Consider 65 molecules from publication PMC6919601, “Identification of Plasmodium dipeptidyl aminopeptidase allosteric inhibitors by high throughput screening” (PLoS ONE, 2019).

Out of some 110,000 compounds screened, about 230 (0.21%) showed an effect of 50% or more. Some of the results follow.
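Further: 30 min substrate incubation versus DMSO and 10 µM JCP410 controls.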

This assay deals with DPAP1 (Plasmodium falciparum, UniProt Q8IIJ9). As to the kind of experiment: primary screen, percent inhibition; read by cleavage of a fluorogenic dipeptide substrate; higher = more effect of the substance. More on the design: species or system P. falciparum D10 trophozoite lysates; single well.
DPAP1, sequence (Q8IIJ9 whole entry, looked up): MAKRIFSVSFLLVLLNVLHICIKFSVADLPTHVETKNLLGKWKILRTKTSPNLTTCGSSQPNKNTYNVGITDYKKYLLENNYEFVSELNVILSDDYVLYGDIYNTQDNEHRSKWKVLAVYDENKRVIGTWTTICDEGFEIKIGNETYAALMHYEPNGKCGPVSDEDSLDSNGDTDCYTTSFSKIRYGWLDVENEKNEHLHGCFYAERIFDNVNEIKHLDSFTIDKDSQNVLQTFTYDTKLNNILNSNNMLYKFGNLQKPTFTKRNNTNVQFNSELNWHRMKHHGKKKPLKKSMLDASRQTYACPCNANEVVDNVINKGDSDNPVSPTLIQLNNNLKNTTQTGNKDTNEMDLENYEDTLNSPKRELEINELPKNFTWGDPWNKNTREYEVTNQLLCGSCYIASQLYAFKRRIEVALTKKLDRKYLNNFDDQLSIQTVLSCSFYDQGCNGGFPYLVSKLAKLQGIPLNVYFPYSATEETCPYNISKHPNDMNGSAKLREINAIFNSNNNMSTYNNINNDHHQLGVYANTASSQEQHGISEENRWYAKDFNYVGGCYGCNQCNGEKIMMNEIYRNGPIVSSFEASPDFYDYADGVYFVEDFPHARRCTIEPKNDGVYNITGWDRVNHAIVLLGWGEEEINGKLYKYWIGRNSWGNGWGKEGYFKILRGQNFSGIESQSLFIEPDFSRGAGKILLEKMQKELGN
With `CCOC(=O)C1CCN(Cc2ccc3ccccc3c2)CC1`, the “% Inhibition @ 10 uM” value was -5.57%.
The result for `CC(C)C[C@H](NC(=O)c1ccc2c(ccn2C)c1)C(=O)NCC#N` reads -4.17%; that for `Cc1nnc(SCC(=O)N2CCN(Cc3ccccc3)CC2)c2nn(-c3ccccc3)c(C)c12`, -9.92%.
Then `CCn1cc(C(=O)N(C)Cc2ccccc2)c2cc(OC)c(OC)cc2c1=O`, with -1.73%; and `CC(C)(C)c1ccc(S(=O)(=O)N2CCSC2)cc1`, with -3.49%.
Then `O=C(O)c1ccc(COc2ccccc2Cl)cc1`, with -5.31%.
`CC1CCCC(C)N1CC#CC(C)(C)O` (centres unmarked): the “% Inhibition @ 10 uM” value was -2.66%.
Then `COc1cc(OC)cc(-n2nnc(-c3nc(-c4ccc(Cl)cc4)no3)c2N)c1`, with 3.73%; and `Oc1ccc(Br)cc1CN1CCCCCCC1`, with -1.64%; and `O=C(c1ccc([N+](=O)[O-])cc1Cl)N1CCc2ccccc2C1`, with -4.4%.
As for `COC(=O)c1ccc(C2C=C(c3ccc(OC)cc3)Nc3ncnn32)cc1` (centres unmarked), the “% Inhibition @ 10 uM” value was 0.0842%.
The result for `C=CCn1cnc2c(cnn2-c2ccc(F)cc2)c1=O` reads -5.37%.
Then `OCc1nc(-c2ccccc2)cs1`, with -7.25%.
The result for `Cc1nc2cc(-c3ccccc3)nn2c(C)c1CCC(=O)N1CCC2(CC1)OCCO2` reads 1.26%; that for `CCOC(=O)c1c(NC(=O)c2cccc([N+](=O)[O-])c2)sc(Br)c1-c1ccccc1`, -3.98%.
On to `Cc1ccc(S(=O)(=O)NCC2CCC(C(=O)NCCCN3CCCC3=O)CC2)cc1` (centres unmarked), for which the “% Inhibition @ 10 uM” value is -4.53%.
The result for `C=C1N(c2ccccc2)C(=O)OC1(C)CC` (centres unmarked) reads -0.996%; that for `Cc1cccc(NC(=O)CCCC(=O)O)c1`, -1.38%; that for `COc1ccc(NC(=O)C2CC(=O)N=C(Nc3nc4ccccc4s3)N2)cc1` (centres unmarked), 1.8%.
Then `NC(=O)c1cc(S(=O)(=O)NCCc2ccc(Cl)cc2)cs1`, with 7.08%; and `Cc1cc(C)c2c(n1)sc1c3ccccc3c(N)nc12`, with -2.58%; and `O=C(O)C1CC(=O)N(Cc2ccc(Cl)cc2)/C(=N/c2ccccc2)S1` (centres unmarked), with 1.49%.
The result for `CCCN1CCN(C(=O)Cn2cnc3sc(C)c(S(=O)(=O)N4CCC(C)CC4)c3c2=O)CC1` reads -2.04%.
For `CC1CCN(c2nc(-c3ccccc3F)nc3ccccc23)CC1`, the “% Inhibition @ 10 uM” value is recorded as 9.62%.
The result for `O=C(Cn1ncc2ccsc2c1=O)NCCCc1ccccc1` reads -2.92%; that for `COc1ccccc1Cn1c(SCc2ccc(Cl)cc2)nc2nccnc2c1=O`, 3.64%; that for `Cc1ccc(-n2nc3c(=O)n(CCCC(=O)NCCCc4ccccc4)nc(C)c3c2C)cc1`, 0.227%.
The result for `Cc1c2cnn(CC(=O)N3CCC(N4CCCCC4)CC3)c(=O)c2c(C)n1Cc1ccccc1F` reads -2.17%.
The result for `COc1ccccc1/C=C/c1nn2c(C(F)(F)F)nnc2s1` reads -2.84%; that for `COc1ccc(CN2CC(C(=O)NCCC3=CCCCC3)CC2=O)cc1` (centres unmarked), -4.83%.
Take `Oc1nc2ccccc2s1`: the “% Inhibition @ 10 uM” value was found to be 1.63%.
Take `O=C(CN1CCCCC1)NC1CCc2cc3c(cc21)CCC3` (centres unmarked): the “% Inhibition @ 10 uM” value was -15.4%.
As for `CCn1c(C(=O)N2CCCC(C(=O)NC(C)c3ccc4c(c3)OCCO4)C2)cc2sccc21` (centres unmarked), the “% Inhibition @ 10 uM” value is on record as -4.34%.
On to `Fc1ccc(C2=CC(c3cc(Br)ccc3F)n3nnnc3N2)cc1` (centres unmarked), for which the “% Inhibition @ 10 uM” value was found to be 3.32%.
The result for `CC1=C(C(=O)OC2CCCC2)C(c2cccc(Cl)c2Cl)C2=C(O)CCCC2=N1` (centres unmarked) reads 6.25%; that for `Oc1cccnc1CSc1nc2ccccc2[nH]1`, 4.54%.
Then `CCOc1ccc(/C=C2/N=C(c3cccc(Cl)c3Cl)OC2=O)cc1`, with -0.77%; and `COCCNCCn1cnc2c1c(=O)[nH]c(=O)n2C`, with 3.35%.
With `CC(C)C(=O)Nc1ccc(-c2cn3ccsc3n2)cc1`, the “% Inhibition @ 10 uM” value is reported as -2.16%.
Then `COc1ccc(NC(=O)COc2cc(C)c(Cl)c(C)c2)c(OC)c1`, with -4.13%.
As to `Cc1cc(C)c(C#N)c(SCC(=O)C2CC2)n1`, the “% Inhibition @ 10 uM” value amounted to 0.0719%.
The result for `Cc1cccc(NC(=O)c2cccc(F)c2)c1C` reads 5.09%.
The result for `CCN1CCN(c2cc(SC)nc(-c3ccc(OC)cc3)n2)CC1` reads -3.37%.
Consider `CC1CCCCN1CCNC(=O)Cn1ncc2c(Cl)cccc21` (centres unmarked), for which the “% Inhibition @ 10 uM” value is -2.88%.
The result for `O=C(Nc1ccc2[nH]c(-c3cccs3)nc2c1)c1cccs1` reads 4.31%; that for `COc1ccc(C(=O)c2oc3ccccc3c2NC(=O)COc2ccccc2C)cc1`, -1.25%; that for `CC(=O)Nc1ccc(C2Nc3cc(C)c(C)cc3N=C3CC(C)(C)CC(O)=C32)cc1` (centres unmarked), 0.751%.
The result for `CC(=O)N1CCc2c([nH]c3ccccc23)C1c1ccccc1C(F)(F)F` (centres unmarked) reads 2.99%.
The result for `Cc1ccc(CN2CCSCC2)c(C)c1` reads 1.01%.
`COc1ccc(C2=NS(=O)(=O)N(C)C(C(=O)N3CCC(C(N)=O)CC3)=C2)cc1`: the “% Inhibition @ 10 uM” value was -2.84%.
The result for `COc1cccc(/C=N/N=C(\N)c2nonc2N)c1O` reads 2.24%.
Turning to `Cc1cc(F)ccc1NCc1ccco1`, the “% Inhibition @ 10 uM” value is reported as -1.85%.
Then `O=C(CCc1nc(-c2ccccc2)no1)N1CCCCC1`, with -4.02%; and `OC1(c2ccc(Br)cc2)CCN(C2CCN(Cc3ccccc3)CC2)CC1`, with -5.44%; and `CCOC(=O)c1c(C)oc2c1c(C(c1ccc(F)cc1)N1CCOCC1)c(O)c1ccccc12` (centres unmarked), with -1.4%.
Then `COc1ccc(OCc2ccc(C3C(C#N)=C(N)Oc4[nH]nc(C)c43)o2)cc1` (centres unmarked), with -3.63%.
As to `Cc1ccccc1Oc1nc2c(C)cccn2c(=O)c1/C=C(\C#N)S(=O)(=O)c1ccc(Cl)cc1`, the “% Inhibition @ 10 uM” value was 2%.
Regarding `Cn1ccnc1Sc1nc2c(c(=O)n(C)c(=O)n2C)n1Cc1c(Cl)cccc1Cl`, the “% Inhibition @ 10 uM” value is given as 3.95%.
The result for `Cc1nn(CC(=O)NC2CCCC(C)C2C)c(=O)c2cccn12` (centres unmarked) reads -5.1%; that for `CC1CCC(N(C)C2CCN(C)CC2)CC1` (centres unmarked), -1.81%; that for `CCOc1cc2c(cc1OCC)C1C(C(=O)NCc3ccc(C)o3)c3ccccc3C(=O)N1CC2` (centres unmarked), 4.05%.
On to `COC(=O)CC1C(=O)NCCN1CC#Cc1ccccc1` (centres unmarked), for which the “% Inhibition @ 10 uM” value is -2.44%.
Then `COc1ccc(-c2nnc3n(Cc4ccccc4)c(=O)c4ccccc4n23)cc1`, with 3.3%.
For the molecule `CCCc1nn(-c2ccc(F)cc2)c(O)c1/C=N/C1CC1`, the “% Inhibition @ 10 uM” value is on record as -3.27%.
Turning to `COc1c(S(=O)(=O)n2c(C)nc3ccccc32)ccc(Cl)c1Cl`, the “% Inhibition @ 10 uM” value was -3.49%.
